Source: PubChem BioAssay AID1963450 (Molecular Pharmacology Branch, DTP, NCI, 2024)
For part of its entries the source gives two or more results. The other results are left out here. An entry can have further records. Values given together are repeated measurements in other runs, samples, wells, individuals or studies. Counts like (3×) say how often a value occurs here. Marks such as [2022-09] give the month of the run.

Tested on: 556581-035-R-J1-PDC complex spheroid growth
Assay: Anticancer human tumor 556581-035-R-J1-PDC patient-derived ovarian carcinoma cell line growth inhibition [Asc]
Conditions: stronger effect = lower value
Experimental: Multicellular complex tumor spheroid response to apoptosis pathway targeting inhibitors Alrizomadlin, Pelcitoclax, and Dasminapant in combination with a variety of drugs and investigational agents in selected tumor cell lines
The MDM2 inhibitor alrizomadlin, the Bcl-2/Bcl-xL inhibitor pelcitoclax, and the IAPs inhibitor dasminapant were evaluated both individually and in combination with standard of care and investigational anticancer small molecules within a complex spheroid model of solid tumors. . Complex spheroids include a stromal component modeled by human endothelial cells (HUVEC) and fibroblasts modeled by human mesenchymal stem cells (MSCs). The concentration ranges selected for each drug and investigational agent were based upon clinically achievable concentrations if the clinical Cmax of the agent was known.
Compounds. The drugs and investigational agents: alrizomadlin (APG-115; NSC831270), pelcitoclax (APG-1252; NSC835773), dasminapant (APG-1387;NSC834197), TAK-243 (NSC785004), copanlisib (NSC809693), olaparib (NSC753686), talazoparib (NSC767125), cobimetinib (NSC 768068), eltanexor (KPT-8602, NSC 794443), abemaciclib (NSC 768073), sotorasib (NSC818433), adagrasib (NSC 831453), MRTX-1133 (NSC 836407), Iadademestat (ORY1001, NSC 806812), and RMC-4630 (NSC839698), were obtained from the NCI Developmental Therapeutics Program Chemical Repository. The FDA-approved anticancer drug set is available from the Developmental Therapeutics Program at https://dtp.cancer.gov/organization/dscb/obtaining/available plates.htm. […] The stock solutions were prepared in dimethyl sulfoxide (DMSO, Sigma-Aldrich, St. Louis, MO, cat. D2650) at 800-fold the tested concentration and stored at -70 degrees C prior to their use. All drugs and investigational agents were tested over a range starting from a high concentration at or near the clinical Cmax and decreasing in half-log increments. If the clinical Cmax for an agent had not been determined, the highest concentration tested was 10 microM.
The patient-derived cancer (PDC) cell lines include five colon adenocarcinomas: 186277-243-T-J2-PDC, 616215-338-R-J1-PDC, 439559-082-T-J2-PDC, 463943-066-T-J2-PDC, and 519858-162-T-J1-PDC; three pancreatic carcinomas: 323965-272-R-J2-PDC, 521955-158-R6-J3-PDC, and 521955-158-R2-J5-PDC; two uterine sarcomas: 327498-152-R-J2-PDC and 993429-296-R-J1-PDC; two rhabdomyosarcomas: 755483-174-R-J1-PDC and 772245-204-R-J1-PDC; two soft tissue sarcomas: 126254-015-R-J1-PDC and 494315-158-R-J1-PDC; two malignant fibrous histiocytomas: 317291-083-R-J1-PDC and 596521-263-R-J1-PDC; two breast carcinomas: 171881-019-R-J1-PDC and 885512-296-R-J2-PDC; and one ovarian carcinoma: 6556581-035-R-J-PDC were obtained from the NCI PDMR, (https://pdmr.cancer.gov). The established cell lines HSSY-2 synovial sarcoma (RRID:CVCL 8719), SYO-1 synovial sarcoma (RRID:CVCL_7146), MPNST malignant peripheral neural sheath tumor were obtained from the Sloan Kettering Institute. The following established cell lines were purchased from the American Type Culture Collection (ATCC, Manassas, VA), Sor the received from the NCI repository:, PANC-1 pancreatic carcinoma (CRL-1469, RRID:CVCL_0480), OVCAR-5 ovarian carcinoma (RRID:CVCL_1628), OVCAR-8 ovarian carcinoma (RRID:CVCL_1629), , MCF-7 breast carcinoma (CRL-12584, RRID:CVCL_0031), MDA-MB-231 breast carcinoma (CRL-12532, RRID:CVCL_0062), NCI-H1876 small cell lung carcinoma (CRL-5902, RRID:CVCL_1503), NCI-H510A small cell lung carcinoma (HTB-184, RRID:CVCL_1565), NCI-H1417 (CRL-5869, RRID:CVCL_1469), and NCI-H196 small cell lung carcinoma (CRL-5823, RRID:CVCL_1509). Dr. Peter Houghton (Greehey Children's Cancer Research Institute, University of Texas Health Science Center, San Antonio, TX) provided Rh-18 rhabdomyosarcoma (RRID:CVCL_1659). Pooled donor human umbilical vein endothelial cells (HUVEC, Lonza, cat. CC-2519) and human mesenchymal stem cells (hMSC, Lonza, cat. PT-2501) were purchased from Lonza (Walkersville, MD).
Cell Culture. […]
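Further: spheroids exposed to agents for 7 days before viability read.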

Row | SMILES | viability, T/C (compound alone 0.03 µM) | viability, T/C (compound alone 0.0949 µM) | viability, T/C (compound alone 0.3 µM) | viability, T/C (compound alone 0.949 µM) | viability, T/C (compound alone 3 µM) | viability, T/C (compound alone 0.01 µM) | viability, T/C (compound alone 0.1 µM) | viability, T/C (compound alone 1 µM)
1 | CCN1C(C(=O)NC23CCC(C(=O)O)(CC2)CC3)C(c2cccc(Cl)c2F)C2(C(=O)Nc3cc(Cl)ccc32)C12CCCCC2 (stereo not drawn) | 103 (2×), 114, 82.9, 107, 92.6, 111 (2×), 79.5, 95, 96.6, 92, 94.1, 100, 101% | 94.9, 84, 109, 86.8, 102, 93.8, 93.2, 66.7, 92.4, 105, 111, 99.5, 70.1, 77.5, 108% | 99, 105, 117, 86.5, 104, 88, 89.8, 81.3, 81.5, 92.8, 103, 84.8, 90.7, 110, 99.3% | 88.8, 117, 86.5, 91.8, 96.3, 95.3, 81.5, 106, 88, 104, 107, 78.3, 84.9, 96.1% | 93.4 (2×), 99.7, 93.5, 80.4, 88.5, 85.1, 84.6, 76, 88.2, 90.5, 75, 90, 80.8, 108% | – | – | –
2 | CNC(C)C(=O)NC1CN(S(=O)(=O)c2cccc(S(=O)(=O)N3CCC4CCC(C(=O)NC(c5ccccc5)c5ccccc5)N4C(=O)C(NC(=O)C(C)NC)C3)c2)CCC2CCC(C(=O)NC(c3ccccc3)c3ccccc3)N2C1=O (stereo not drawn) | – | – | – | – | – | 76.6, 95.6, 92.6, 82, 88.8, 72.6, 69, 74, 84.5, 81.7, 96.8, 84.6, 77.3% [2022-10] and 102% [2022-11] | 66.4, 82.4, 64.4, 69.5, 75.1, 70.8, 51.9, 76.5, 83.5, 79.9, 73.9, 81.7, 69.6% [2022-10] and 83.2% [2022-11] | 61.1, 50.7, 85.2, 73.9, 60.1, 69.8, 66.2, 75.8, 68.6, 73.6, 78.5, 75.5, 67% [2022-10] and 75.3% [2022-11]
